In article PMC12136788 one finds binding signal data, which are given here for 14 molecules.

The list shows a part of the results.

B1: chr4:169989555:169989656:-|3pUTR|ENSG00000198948|unk|total|mutant (ssRNA)
RNA: GGGAGUUCUACAGUCCGACGAUCUUGGACAACUCCCUUCCUCUCUCUGGGAUUUAAUCUUUUUCAUCUGUAAAAUAUGCAGGCCGUACUCGAGGGUCUACAGGAUCCCUUCCCGUUGAAACAUUUACCGUUCACAGAAAGUUUCAACAGAGGAUUGAGCAUCA
B2: chr14:39032579:39032680:-|3pUTR|ENSG00000100934|msi1|FALSE|bound_elsewhere (ssRNA)
RNA: GGGAGUUCUACAGUCCGACGAUCUGAUUUUAUAAUGGUAAUUUUCAUGAUGAUAAUGUUUUUGGUUAUUUGGAAAGAUAGUUUAGAGAUGAAAGGUUUUUUUGGGUAACAAUCCCGCAGCUGACAAAAAAUGUGAAAUUUCCACAACAGAGGAUUGAGCAUCA
B3: ENSG00000070961:be:win_2801|CDS|ENSG00000070961|bound_else_gene|NA|bound_elsewhere_windowed (ssRNA)
RNA: GGGAGUUCUACAGUCCGACGAUCGUCAUGCAUUCUAUCAACUUGUAGUAGUCUUUACACUCUUAUUUGCUGGAGAAAAGUUUUUUGACAUUGAUAGUGGAAGAAAUGCUCCUUUGCAUGCUCCUCCUUCAGAACAUUAUACUACAACAGAGGAUUGAGCAUCA
B4: chr12:122133860:122133961:+|CDS|ENSG00000175727|msi1|total|mutant (ssRNA)
RNA: GGGAGUUCUACAGUCCGACGAUCUUUUGUGCACCCCAAACCUGUAUCCUUGACUGGGGGCAGGCCUAAGCAGCCCCACAAAACCGUGCCUGCUCCCAAACCAGAGCCCGUGUCCUUGGUGUUGAAGAAUGCCCGUAUCGCCCCCAACAGAGGAUUGAGCAUCA
B5: chr14:55043969:55044070:+|CDS|ENSG00000180008|unk|total|mutant (ssRNA)
RNA: GGGAGUUCUACAGUCCGACGAUCUUUUUACUUCGAGACUCAGCACAGGAAGACUAUUUAUUCUCUGUCCGUUUCCGACGCUACCGUCGUUCUCUUCAUGCCCGAAUUGAACAGUGGAAUCACAACUUCCGCUUUGAUGCACAUCAACAGAGGAUUGAGCAUCA
B6: ENSG00000124006:stop:overlap|stop_codon|ENSG00000124006|stop_codon|NA|stop_codon (ssRNA)
RNA: GGGAGUUCUACAGUCCGACGAUCCGAAGACCCGGCGGCUCUGGUCCCGCUUCCCCCCAUGGCGACGAACAGCUGGCACUGAGUAGCAGCUGCCCCCAUAGUUUGGGGCCCACAUUCCUCUGUCCCACCUCCCUGCCAUUGCUUCAACAGAGGAUUGAGCAUCA
B7: ENSG00000138660:stop:overlap|stop_codon|ENSG00000138660|stop_codon|NA|stop_codon (ssRNA)
RNA: GGGAGUUCUACAGUCCGACGAUCCUGUAUUAGAACUGUCUGAUUCUGGCAUAAGGCAUUCUGACACAGAUCAACAGACUCGAUAGGGUAAAAUUGUGUGACCUUGUUUAUCAGUUAUGACCAAAUGUUAAAAACCAACUAGAACAACAGAGGAUUGAGCAUCA
B8: chr8:93925380:93925481:+|3pUTR|ENSG00000164951|msi1|total|mutant (ssRNA)
RNA: GGGAGUUCUACAGUCCGACGAUCAUUUAUUUCUAAAUGUUUUGACUGGGCAUUUUUCUUUUAAUGAAAUAUGUGGACUGCUCCCGCAAACCCUAUUUUCAGCUACUAUUUGAAUAUUCUUGAACACCACCACUGAAGAGUUUCCAACAGAGGAUUGAGCAUCA
B9: chr8:11323570:11323671:+|3pUTR|ENSG00000104643|unk|total|mutant (ssRNA)
RNA: GGGAGUUCUACAGUCCGACGAUCGAGCAUACAUAUACAAUGUGUUUCAAAUGCUGCUUGUAAAAUUAAACCAUCAUCCCGAACCGAGUUAAUUUAUUAUAAUCAAGCUACAAACCGGUUUUCUUAAACCAGAGAUGCACUGCCCAACAGAGGAUUGAGCAUCA
B10: chr20:18487131:18487232:-|3pUTR|ENSG00000089050|msi1|FALSE|unique (ssRNA)
RNA: GGGAGUUCUACAGUCCGACGAUCAAAUAUAGUAACCAGUAACCACAGCUAGCUGUAAAAUUGAAAAUUCAGUUCAGUCAAACUAGCCAUAUUUCAAGUGCUCAACAGCCACUGGUGGCUAUUGGUUACCUUACUGACCAGCCACAACAGAGGAUUGAGCAUCA
B11: chr3:125228010:125228111:-|3pUTR|ENSG00000163848|msi1|total|mutant (ssRNA)
RNA: GGGAGUUCUACAGUCCGACGAUCAGUUCUCUUCAUAUUUCAUAACUACAUUUCAAUAAUUCUAAACUUUCUACAUUGAUUUUCCGAUACUUAUUUUUCAAGCUUGGUUUCUCAGCUGAUCAGAUGAAUUUAUUCAACUUCAAUCAACAGAGGAUUGAGCAUCA
B12: chr17:31995613:31995700:+|CDS|ENSG00000178691|msi1_unk|total|mutant (ssRNA)
RNA: GGGAGUUCUACAGUCCGACGAUCAGCAUGUCUGAAUUUCUUGAAUCUGAAGAUGGGGAAGCCGAACAGCAAAGAACAUACCGCCGUGGCCACAAUCGUCUGUAUUUCCACCGUGAUACCUGCUUACCUCUCCGUCCACAAGAACAACAGAGGAUUGAGCAUCA
B13: chr6:122432834:122432935:+|3pUTR|ENSG00000025156|msi1|FALSE|unique (ssRNA)
RNA: GGGAGUUCUACAGUCCGACGAUCAUAUAUAGAAAGAUCGGGGGUGGGAUGGGAUGGAGUGAGCCCCAUCCAGUUAGUUGGACUAGUUUUAAAUAAAGGUUUUCCGGUUUGUGUUUUUUUGAACCAUACUGUUUAGUAAAAUAACAACAGAGGAUUGAGCAUCA
B14: chr1:37590682:37590793:-|CDS|ENSG00000134697|unk|total|mutant (ssRNA)
RNA: GGGAGUUCUACAGUCCGACGAUCAAGCAAAGCAAGUUACCAAUGUCUCUUCUCCAUGAUCGAAUCCGGCCUCAUGUAAGAUGCCGGAUAUCCCUGGUGAUGGAAUUUCCUGGGCAAACUCCAUGCAGAUCCCUCUCUAACAUACAACAGAGGAUUGAGCAUCA

For this assay, the target named is MSI1 full-length (mouse, UniProt Q61474 1-362). The assay can be described thus: nsRBNS (natural sequence RNA bind-n-seq); RBNS binding buffer (assumed for nsRBNS): 25 mM Tris pH 7.5, 150 mM KCl, 3 mM MgCl2, 0.01% Triton X-100, 500 ug/ml BSA, 20 U/ml SUPERase-In, 4 C; UNK is unkempt and MSI1 is Musashi-1; names of the RNAs are library labels; protein concentration not given here; high values mean tight binding.
UniProt Q61474, sequence (Q61474 whole entry): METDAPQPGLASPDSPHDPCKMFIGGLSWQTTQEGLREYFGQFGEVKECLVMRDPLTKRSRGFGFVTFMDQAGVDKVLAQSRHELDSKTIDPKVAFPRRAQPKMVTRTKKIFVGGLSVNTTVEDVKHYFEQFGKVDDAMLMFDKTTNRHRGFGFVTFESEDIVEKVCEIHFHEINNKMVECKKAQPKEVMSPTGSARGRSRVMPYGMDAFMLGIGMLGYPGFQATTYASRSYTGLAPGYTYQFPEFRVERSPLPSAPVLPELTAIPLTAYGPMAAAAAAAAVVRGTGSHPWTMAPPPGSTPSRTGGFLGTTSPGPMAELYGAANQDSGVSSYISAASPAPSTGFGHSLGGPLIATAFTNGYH
Consider B1, for which the binding signal was 0.547 enrichment R.
Consider B2, for which the binding signal came to 1.3 enrichment R.
The value for B3 was 0.822 enrichment R.
On to B4, for which the binding signal worked out at 0.494 enrichment R.
Turning to B5, the binding signal is 0.229 enrichment R.
As for B6, the binding signal stood at 0.474 enrichment R.
The molecule B7 yielded a binding signal of 0.452 enrichment R.
B8 displayed a binding signal of 0.468 enrichment R.
B9 gave a binding signal of 0.435 enrichment R.
B10 returned a binding signal of 0.359 enrichment R.
As for B11, the figure is 18.6 enrichment R.
As for B12, the binding signal stood at 0.473 enrichment R.
As for B13, the figure is 5.26 enrichment R; as for B14, 0.342 enrichment R.
